Test results as given in PubChem BioAssay AID1159554 (Broad Institute, 2015).
In all, about 94,000 compounds went through this assay and about 2,100 (2.2%) were called active. Inconclusive results, whose numbers are uncertain, are shown with a selection of clear calls. Cut-off read from the data, not from the text of the source: active = activity change below about -80%; inconclusive = no clear call, values can overlap the other calls; inactive = above that.

Experiment: P. falciparum Dd2 growth inhibitors, primary screen, SYBR Green fluorescence, single dose replicates (AID 1159554)
Conditions: 72 h, at 10 µM, stronger effect = lower value

Row | SMILES | activity change
1 | C[C@@H]1CN([C@H](C)CO)S(=O)(=O)c2ccc(C#CC3CCCC3)cc2O[C@H]1CN(C)Cc1cccnc1 | active: -81.7%
2 | C[C@@H]1CCCCO[C@@H](CN(C)CC2CCCCC2)[C@H](C)CN([C@H](C)CO)C(=O)c2cc(NC(=O)CCCCCC(=O)Nc3ccccc3N)ccc2O1 | inconclusive: -80.9%
3 | CO[C@@H]1CN(C)C(=O)c2cc(NC(C)=O)ccc2OC[C@@H](C)N(C(=O)Cc2cccnc2)C[C@H]1C | inconclusive: -80.9%
4 | C[C@@H]1CN([C@@H](C)CO)C(=O)c2cc(NC(=O)Nc3ccc(F)cc3)ccc2O[C@@H](C)CCCCO[C@@H]1CN(C)CC1CCCCC1 | inconclusive: -81.1%
5 | C[C@H](NC(=O)N(C)C[C@@H]1OCc2ccccc2-c2c(n(C)c3ccccc23)C(=O)N([C@H](C)CO)C[C@@H]1C)c1ccccc1 | inconclusive: -80.2%
6 | Cc1ccc(S(=O)(=O)Nc2ccc3c(c2)C(=O)N([C@H](C)CO)C[C@@H](C)[C@@H](CN(C)Cc2ccc4c(c2)OCO4)OCCCC[C@@H](C)O3)cc1 | inactive: -74.4%
7 | COc1cccc(S(=O)(=O)N(C)C[C@@H]2Oc3cc(C#CCC(C)C)ccc3S(=O)(=O)N([C@H](C)CO)C[C@H]2C)c1 | inconclusive: -80.6%
8 | COCC(=O)N1CCC2(CC1)CN(Cc1ccccc1Cl)[C@@H](CO)c1[nH]c3cc(OC)ccc3c12 | inconclusive: -81.6%
9 | C[C@@H]1CN([C@H](C)CO)S(=O)(=O)c2ccc(C3=CCCC3)cc2O[C@@H]1CN(C)CC1CCCCC1 | inconclusive: -80.2%
10 | COc1cc(CN2C[C@@H]3N[C@H](C2)C3c2ccc(/C=C/c3ccccc3)cc2)cc(OC)c1 (stereo partly specified) | inconclusive: -83.8%
11 | N#Cc1ccc(-c2ccc([C@@H]3[C@@H](CO)N4C(=O)CN(C(=O)C5CCC5)C[C@@H]34)cc2)cc1 | inconclusive: -83.4%
12 | C[C@@H]1CN([C@H](C)CO)C(=O)c2cc(NC(=O)C3CC3)ccc2O[C@@H]1CN(C)S(=O)(=O)c1ccc(F)cc1 | inactive: 13.3%
13 | COc1ccc2c3c(n(C)c2c1)[C@@H](CO)N(CC1CC1)CC31CCN(C(=O)CC2CC2)CC1 | inconclusive: -81.5%
14 | CC(C)CC#Cc1cnc2c(c1)C(=O)N([C@@H](C)CO)C[C@@H](C)[C@@H](CN(C)C(=O)Nc1cccc(F)c1)O2 | inactive: -8.23%
15 | C[C@@H]1CN([C@@H](C)CO)S(=O)(=O)c2ccc(C#Cc3ccncc3)cc2O[C@H]1CN(C)C(=O)Nc1ccc2c(c1)OCO2 | inconclusive: -80.6%
16 | C[C@@H]1CN([C@H](C)CO)C(=O)c2cc(NC(=O)Nc3ccc(F)cc3)ccc2O[C@@H](C)CCCCO[C@@H]1CN(C)C(=O)Cc1ccccc1 | inconclusive: -80.8%
